The supplement of paper PMC3334620
Over roughly 33,000 sequences, “E-score (-0.5 to 0.5)” has its median near -0.035; the highest 2% begin near 0.34. This is one part of the list.

Target: T1, Mot3 (UniProt P54785)
T1 sequence: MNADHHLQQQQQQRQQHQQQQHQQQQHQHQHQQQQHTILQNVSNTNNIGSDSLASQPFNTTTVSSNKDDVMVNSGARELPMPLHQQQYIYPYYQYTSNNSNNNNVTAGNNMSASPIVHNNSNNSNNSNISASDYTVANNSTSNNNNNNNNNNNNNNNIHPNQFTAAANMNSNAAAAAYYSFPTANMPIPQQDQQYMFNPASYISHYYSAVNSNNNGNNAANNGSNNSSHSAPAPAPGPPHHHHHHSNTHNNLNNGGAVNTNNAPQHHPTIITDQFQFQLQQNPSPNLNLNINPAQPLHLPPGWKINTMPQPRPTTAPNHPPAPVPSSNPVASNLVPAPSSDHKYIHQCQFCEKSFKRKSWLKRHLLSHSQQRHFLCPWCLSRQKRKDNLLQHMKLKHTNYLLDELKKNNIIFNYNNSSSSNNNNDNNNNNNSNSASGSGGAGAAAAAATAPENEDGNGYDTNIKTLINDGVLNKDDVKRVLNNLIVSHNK
Assay: PBM E-score (8-mer binding enrichment) (E-score (-0.5 to 0.5)); higher = stronger / more preferred TF binding; most listed sequences are background and not binding sites
Details: protein concentration: 200 nM; construct: GST-full length
In short: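 GST-tagged yeast TFs (full-length or DNA-binding domain) were made by PURExpress in vitro transcription/translation and applied at about 100-200 nM to universal all-10-mer Agilent arrays. The arrays were made double-stranded by primer extension, on fresh or once-stripped slides. Bound protein was detected with fluorescent anti-GST, and scans were normalised with masliner. Each ungapped eight-base word, pooled with its reverse complement, received an E-score (modified Wilcoxon-Mann-Whitney statistic) from the Universal PBM Analysis Suite.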

Row | Sequence | PBM E-score
1 | CTCCGCCC | -0.244
2 | GCAGAGTA | 0.0243
3 | AATAGCGG | -0.117
4 | GAGTATTA | 0.204
5 | AGCGTAGC | -0.14
6 | GAGATTGC | -0.0847
7 | AGGAGGTC | -0.27
8 | CAGCCCAG | -0.22
9 | AACGCTCT | -0.167
10 | CCCCGTTA | -0.156
11 | AACTACGG | -0.146
12 | CGATCTTC | -0.305
13 | GTACTGAC | -0.15
14 | ACATACCT | 0.288
15 | GCGATTCC | 0.0141
16 | AAATTTGA | 0.0379
17 | CTTACAAG | 0.218
18 | CTAGTCAG | -0.16
19 | GCCGCGGA | -0.18
20 | AGCCGTTA | -0.266
21 | GCGGGTCA | 0.0734
22 | CGGGCAGC | -0.244

Row | Sequence | PBM E-score
23 | CACCCGCG | -0.0685
24 | GAGACTAA | -0.172
25 | AGATGGTC | -0.274
26 | CAGAGTCA | -0.221
27 | TATTCCCA | -0.221
28 | TATAGGGA | -0.0815
29 | CGGATCCG | -0.262
30 | GGCCCTAA | -0.304
31 | CGCGAAAA | 0.0371
32 | CTTGGAGA | -0.0514
33 | CCTAATCG | 0.0391
34 | CTTTTGAA | -0.0379
35 | AACGCATC | 0.0613
36 | AAAGATAG | 0.0365
37 | CTAATGAA | -0.0827
38 | AAGTCTCA | -0.0154
39 | ACTAACAC | 0.265
40 | AGTTAAGC | 0.101
41 | GTCCAGCA | -0.284
42 | AGTCTCGA | -0.137
43 | CTTCTCCC | -0.0366
44 | CGGCGCTC | -0.00635

Row | Sequence | PBM E-score
45 | TCGCGTAA | 0.374
46 | AGAAATCG | -0.0445
47 | GACTCATA | -0.19
48 | CTGATACC | -0.0456
49 | CAGGCCCG | -0.0435
50 | ACATACTG | 0.157
51 | CACTCACG | 0.086
52 | AACGGAAA | -0.0791
53 | ATAATACG | 0.155
54 | CGGTGCTC | -0.312
55 | AGCTCCGG | -0.172
56 | CTACGACC | -0.0193
57 | CACTCCTC | -0.121
58 | GAGGATGA | -0.0222
59 | AGACCATC | -0.367
60 | CAGGTCTA | -0.267
61 | AGGAGCTC | 0.179
62 | AACCATTA | 0.117
63 | CCGGTCTA | -0.0672
64 | CACGAGCG | -0.0336
65 | GGACCCAC | -0.213
66 | CAGTGTAA | 0.225

Row | Sequence | PBM E-score
67 | GGCACAAA | 0.331
68 | GACAAAGA | -0.0215
69 | CCGTACCG | -0.262
70 | ATTTAGAA | -0.0375
71 | AAGCGGCC | -0.308
72 | CGGCCTGA | -0.351
73 | CTAGACCA | -0.28
74 | CTGGTCAA | -0.204
75 | ACGGAAGA | 0.301
76 | ATACACCG | 0.106
77 | ATATTATA | 0.0915
78 | AGCTGCTC | -0.121
79 | GGGACTAA | -0.27
80 | AAAGGTGC | 0.177
81 | GGTAGGCA | 0.473
82 | CACGCAAA | 0.117
83 | AATTTCCA | 0.167
84 | CAGCTTAC | 0.106
85 | AAGTCCAA | -0.0739
86 | ATCGTACC | -0.104
